Assay results: PubChem BioAssay AID493208 (National Center for Advancing Translational Sciences (NCATS), 2011)
Hit rate of the full screen: of about 44,000 compounds, about 340 (0.77%) were called active. The shares of active, inactive and inconclusive entries below differ from those in the screen. Calls come from the whole dose curve; as a rule, active = well fitted inhibition curve with a large enough effect; inconclusive = small, poorly fitted or top-dose-only effect; inactive = flat fitted curve, though single readings scatter. No potency is given beside an inconclusive call; the fits are too rough.

Test: Acumen qHTS Assay for Inhibitors of the mTORC1 Signaling Pathway in MEF (Tsc2-/-, p53-/-) Cells: Sytravon; note: nearly all actives have a fitted effect of over 50% in size
Settings: phospho-rpS6 immunofluorescence/PI, 24 h; series mostly up to 38.3 µM; activity change, negative = inhibition: at the top concentration
Description: NIH Molecular Libraries Probe Production Centers Network [MLPCN] NIH Chemical Genomics Center [NCGC] MLPCN Grant: NS059428-01 Assay Submitter (PI): Blenis, John; Hoffman, Greg; Harvard University NCGC Assay Overview: The mammalian target of rapamycin (mTOR) is an intracellular serine/threonine kinase Aberrant regulation of mTOR signaling plays a causative role in a number of human diseases, including cancer, benign tumors such as lymphangioleiomyomatosis (LAM) and Tuberous Sclerosis Complex (TSC), and metabolic diseases such as diabetes and obesity. This project aims to identify inhibitors of ribosomal protein S6 (rpS6) phosphorylation. The phosphorylation of rpS6 is a key event downstream of mTOR activation. The assay uses a phospho-specific antibody of phospho-rpS6 to detect inhibitors of mTOR activation. Mutations in the Tsc1 and Tsc2 genes are the underlying genetic lesions responsible for TSC, causing constitutive activation of the mTORC1 pathway and leading to profound effects on cell metabolism. Aberrant metabolism in cancer has recently received significant attention as a target to develop therapeutic agents in the treatment of cancer.1 As Tsc2-/- cells have lost the ability to respond to energy and growth factor deprivation, these cells are unable to properly down regulate cellular biosynthetic processes in response to metabolic stress, and are thus extremely sensitive to glucose deprivation-induced death.2 A central goal of this project is to explore the unique cell survival and metabolic properties of cells with Tsc1 or Tsc2 by screening for compounds that selectively target the Tsc2-/- MEFs by screening both Tsc2-/- and WT MEF cell lines. We hope to better understand these aspects of TSC physiology in order to exploit them for therapeutic benefit.
NCGC Acumen Assay Protocol Summary: For quantitative high throughput analysis of mTORC1 signaling, we developed a cell-based assay for immuno-fluorescence based detection of rpS6 phosphorylation on the Acumen Explorer that will be used a platform for the primary small molecule screen. Mouse embryonic fibroblasts (MEFs) are cultured in 1536-well plates using DMEM + 10% FBS. Twenty-four hrs after plating, test compounds (solubilized in DMSO) are delivered and incubated with the cells for 24 hrs at 37 degree Celsius. Following the incubation, media with compound is aspirated and the cells are fixed in 4% paraformaldehyde (PFA) containing PBS + 0.2% TX-100. Next, PFA is aspirated, cells are washed two times with PBS plus 0.2% TX-100 and the cells are blocked for 1 hr at room temperature (blocking buffer: LiCOR Blocking Buffer plus 0.2% TX-100). […] Cells are washed two times with PBS plus 0.2% TX-100, and stained with 10 uM propidium iodide (PI) for 20-25 minutes for cell number measurement (1:500 dilution of Hoescht staining is also added for IN Cell imaging). The plates are scanned on the Acumen Explorer laser scanning instrument (TTP Labtech) using the 488nm laser for simultaneous excitation of the Alexa-488 and PI. […] The normalized phospho-S6 staining is calculated as the ratio of the integrated Alexa 488 intensity divided by the integrated PI intensity for the single concentration rapamycin control (7.5 nM) and DMSO columns. […] Inhibition of the pathway is defined based on the normalized phospho-S6 intensity in rapamycin treated cells. Active cells are defined as those with a normalized phospho-S6 staining above this threshold, and each treatment is reported as the % positive cells in the well, where thresholds are defined by selecting wells with the highest and lowest signal and differentiating between the % non-active and % active populations. In addition to the pathway specific phospho-S6 endpoint, the number of PI stained cells from the Acumen is recorded as a measure of cell viability. The primary screen was performed with a MEF cell line in a defined genetic background, Tsc2-/-, p53-/- cell line stably transfected with an empty vector control (Tsc2-/- MEF).
Potency is the fitted concentration of half-maximal effect; tags give direction and shape of the fitted curve.

| Compound | activity change, negative = inhibition | Potency |
| --- | --- | --- |
| CCOc1ccc(-c2c(C)nn3c(C)c(C(=O)NCCN(C)C)cnc23)cc1OCC | inactive: -7.1% |  |
| O=C(CSc1nncn2c1cc1occc12)Nc1ccc(F)c(Cl)c1 | inactive: -15.2% |  |
| O=C(CCCn1c(=O)[nH]c2ccc(Br)cc2c1=O)N1CCN(c2cccc(Cl)c2)CC1 |  | inconclusive [falling, partial curve, poor fit] |
| Cc1ccc(S(=O)(=O)Nc2ccc(-c3ccc(N4CCCCCC4)nn3)cc2)c(C)c1 |  | inconclusive [falling, partial curve, poor fit] |
| Cc1ccc(NCc2cc3cc4c(cc3n(CC(=O)Nc3ccc(C)cc3)c2=O)OCCO4)cc1 |  | active: 4.65 µM |
| COCCNC(=O)c1nn(-c2ccc(C)cc2)c(=O)c2c1c1ccccc1n2C | inactive: 1.72% |  |
| CN(C)CCCNc1cc(N2CCN(C3CCCCC3)CC2)c2noc3c2c1C(=O)c1ccccc1-3 |  | inconclusive [falling, partial curve, poor fit] |
| CCOc1cc(C(=O)Nc2ccc(-c3cn4cccnc4n3)cc2)cc(OCC)c1OCC |  | inconclusive [falling, partial curve, poor fit] |
| Cc1nc2ccccn2c(=O)c1NC(=O)c1ccc(F)c(F)c1 |  | inconclusive [falling, full curve, poor fit] |
| COC(=O)c1cc2oc(C)cc2n1Cc1ccc(Br)cc1F | inactive: -15% |  |
| CCc1ccc(-n2c(=O)c3cccnc3n2CC(=O)NCc2ccccc2)cc1 | inactive: 0% |  |
| COC(=O)c1c(C)oc2ccc(N(C(=O)c3ccncc3)S(=O)(=O)c3ccc(OC)cc3)cc12 |  | inconclusive [falling, full curve] |
| CN(C)c1ccc(CNS(=O)(=O)c2ccc(-c3cc(C(F)(F)F)on3)s2)cc1 | inactive: -2.02% |  |
| CCCCn1c(=N)n(CCCOc2ccc(F)cc2)c2ccccc21 |  | inconclusive [falling, single point] |
| CCCOC(=O)c1cccc(NC(=O)c2c(-c3ccccc3Cl)noc2C)c1 |  | inconclusive [falling, single point] |
| Cc1ccccc1Cn1c(COc2ccc(Cl)cc2)nc2ccccc21 |  | inconclusive [falling, partial curve, poor fit] |
| O=C(Nc1cccc(F)c1)C1CCCN(S(=O)(=O)c2cccc3cccnc23)C1 (stereo not drawn) |  | inconclusive [falling, partial curve, poor fit] |
| COC(=O)c1ccc(NC(=O)CSc2cn(CC(=O)N3CCCCC3)c3ccccc23)cc1 |  | inconclusive [falling, partial curve, poor fit] |
